Experimental data published in the supplement of paper PMC8728848.
Some of the results follow.

Key:
Experiment in all cases: glycan array binding signal (z-score within array); higher = stronger binding
Settings in all cases: glycan notation: IUPAC condensed, linker removed; mutation: R82H, R255H
GlcNAc(b1-3)GalNAc = molecular target: GlcNAc(b1-3)GalNAc
How it was run: (§1)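 Glycan array binding is given as a within-array Z-score, which can be read as non-binding when negative. The arrays, 3228 of them, came from the Consortium for Functional Glycomics database and were retained only where the protein sequence was available. Z-scores were averaged across arrays of the same protein sequence at different concentrations or buffers and across linkers.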

GlcNAc(b1-3)Man = molecular target: GlcNAc(b1-3)Man
How it was run: as §1

[1] = molecular target: GlcNAc(b1-3)[GlcNAc(b1-4)][GlcNAc(b1-6)]GlcNAc
How it was run: as §1

[2] = molecular target: GlcNAc(b1-3)[GlcNAc(b1-6)]Gal(b1-4)GlcNAc
How it was run: as §1

[3] = molecular target: GlcNAc(b1-3)[GlcNAc(b1-6)]GalNAc
How it was run: as §1

[4] = molecular target: GlcNAc(b1-4)Gal(b1-4)GlcNAc
How it was run: as §1

GlcNAc(b1-4)GlcNAc = molecular target: GlcNAc(b1-4)GlcNAc
How it was run: as §1

[5] = molecular target: GlcNAc(b1-4)GlcNAc(b1-4)GlcNAc
How it was run: as §1

[6] = molecular target: GlcNAc(b1-4)GlcNAc(b1-4)GlcNAc(b1-4)GlcNAc(b1-4)GlcNAc
How it was run: as §1

[7] = molecular target: GlcNAc(b1-4)GlcNAc(b1-4)GlcNAc(b1-4)GlcNAc(b1-4)GlcNAc(b1-4)GlcNAc
How it was run: as §1

[8] = molecular target: GlcNAc(b1-4)[GlcNAc(b1-6)]GalNAc
How it was run: as §1

[9] = molecular target: GlcNAc(b1-6)Gal(b1-4)GlcNAc
How it was run: as §1

GlcNAc(b1-6)GalNAc = molecular target: GlcNAc(b1-6)GalNAc
How it was run: as §1

[10] = molecular target: GlcNAc6S(b1-3)Gal(b1-4)GlcNAc
How it was run: as §1

Kdn(a2-3)Gal(b1-3)GalNAc = molecular target: Kdn(a2-3)Gal(b1-3)GalNAc
How it was run: as §1

Kdn(a2-3)Gal(b1-3)GlcNAc = molecular target: Kdn(a2-3)Gal(b1-3)GlcNAc
How it was run: as §1

Kdn(a2-3)Gal(b1-4)Glc = molecular target: Kdn(a2-3)Gal(b1-4)Glc
How it was run: as §1

Kdn(a2-3)Gal(b1-4)GlcNAc = molecular target: Kdn(a2-3)Gal(b1-4)GlcNAc
How it was run: as §1

[11] = molecular target: Kdn(a2-3)Gal(b1-4)[Fuc(a1-3)]GlcNAc
How it was run: as §1

Kdn(a2-6)Gal(b1-4)GlcNAc = molecular target: Kdn(a2-6)Gal(b1-4)GlcNAc
How it was run: as §1

[12] = molecular target: Man(a1-2)Man(a1-2)Man(a1-3)Man
How it was run: as §1

[13] = molecular target: Man(a1-2)Man(a1-2)Man(a1-6)[Man(a1-3)]Man
How it was run: as §1

Man(a1-2)Man(a1-3)Man = molecular target: Man(a1-2)Man(a1-3)Man
How it was run: as §1

[14] = molecular target: Man(a1-2)Man(a1-3)[Man(a1-2)Man(a1-6)]Man
How it was run: as §1

[15] = molecular target: Man(a1-2)Man(a1-3)[Man(a1-2)Man(a1-6)]Man(a1-6)[Man(a1-2)Man(a1-2)Man(a1-3)]Man
How it was run: as §1

[16] = molecular target: Man(a1-2)Man(a1-3)[Man(a1-2)Man(a1-6)]Man(a1-6)[Man(a1-2)Man(a1-2)Man(a1-3)]Man(b1-4)GlcNAc(b1-4)GlcNAc
How it was run: as §1

[17] = molecular target: Man(a1-2)Man(a1-3)[Man(a1-6)]Man(a1-6)[Man(a1-2)Man(a1-3)]Man(b1-4)GlcNAc(b1-4)GlcNAc
How it was run: as §1

[18] = molecular target: Man(a1-2)Man(a1-6)[Man(a1-3)]Man(a1-6)[Man(a1-2)Man(a1-2)Man(a1-3)]Man
How it was run: as §1

[19] = molecular target: Man(a1-2)Man(a1-6)[Man(a1-3)]Man(a1-6)[Man(a1-2)Man(a1-2)Man(a1-3)]Man(b1-4)GlcNAc(b1-4)GlcNAc
How it was run: as §1

Man(a1-3)[Man(a1-6)]Man = molecular target: Man(a1-3)[Man(a1-6)]Man
How it was run: as §1

[20] = molecular target: Man(a1-3)[Man(a1-6)]Man(a1-6)[Man(a1-2)Man(a1-3)]Man(b1-4)GlcNAc(b1-4)GlcNAc
How it was run: as §1

[21] = molecular target: Man(a1-3)[Man(a1-6)]Man(a1-6)[Man(a1-3)]Man
How it was run: as §1

[22] = molecular target: Man(a1-3)[Man(a1-6)]Man(a1-6)[Man(a1-3)]Man(b1-4)GlcNAc(b1-4)GlcNAc
How it was run: as §1

[23] = molecular target: Man(a1-3)[Man(a1-6)]Man(b1-4)GlcNAc(b1-4)GlcNAc
How it was run: as §1

[24] = molecular target: Man(a1-3)[Man(a1-6)]Man(b1-4)GlcNAc(b1-4)[Fuc(a1-6)]GlcNAc
How it was run: as §1

Man(a1-6)Man = molecular target: Man(a1-6)Man
How it was run: as §1

Man(b1-4)GlcNAc = molecular target: Man(b1-4)GlcNAc
How it was run: as §1

MurNAc(b1-4)GlcNAc = molecular target: MurNAc(b1-4)GlcNAc
How it was run: as §1

B1: Gal 8 (Mus musculus), Q9JL15 (protein)
chain: MGGSHHHHHHGMASMLSLNNLQNIIYNPIIPYVGTITEQLKPGSLIVIRGHVPKDSERFQVDFQLGNSLKPRADVAFHFNPHFKRSSCIVCNTLTQEKWGWEEITYDMPFRKEKSFEIVFMVLKNKFQVAVNGRHVLLYAHRISPEQIDTVGIYGKVNIHSIGFRFSSASALPHTLGDLQSMETSALGLTQINRENIQKPGKLQLSLPFEARLNASMGPGRTVVIKGEVNTNARSFNVDLVAGKTRDIALHLNPHLNVKAFVRNSFLQDAWGEEERNITCFPFSSGMYFEMIIYCDVREFKVAINGVHSLEYKHRFKDLSSIDTLSVDGDIRLLDVRSW
Question: How did the “glycan array binding signal (z-score)” value (GlcNAc(b1-3)GalNAc) turn out when B1 was run?
Answer: -0.213

Question: And the “glycan array binding signal (z-score)” value (GlcNAc(b1-3)Man)?
Answer: -0.209

Question: And the “glycan array binding signal (z-score)” value [1]?
Answer: -0.281

Question: What about the “glycan array binding signal (z-score)” value [2] of the same binder?
Answer: -0.252

Question: What about the “glycan array binding signal (z-score)” value [3] of the same binder?
Answer: -0.268

Question: And the “glycan array binding signal (z-score)” value [4]?
Answer: -0.209

Question: And the “glycan array binding signal (z-score)” value (GlcNAc(b1-4)GlcNAc)?
Answer: -0.233

Question: And the “glycan array binding signal (z-score)” value [5]?
Answer: -0.255

Question: What about the “glycan array binding signal (z-score)” value [6] of the same binder?
Answer: -0.232

Question: And the “glycan array binding signal (z-score)” value [7]?
Answer: -0.175

Question: What about the “glycan array binding signal (z-score)” value [8] of the same binder?
Answer: -0.278

Question: And the “glycan array binding signal (z-score)” value [9]?
Answer: -0.251

Question: What about the “glycan array binding signal (z-score)” value (GlcNAc(b1-6)GalNAc) of the same binder?
Answer: -0.121

Question: And the “glycan array binding signal (z-score)” value [10]?
Answer: -0.263

Question: And the “glycan array binding signal (z-score)” value (Kdn(a2-3)Gal(b1-3)GalNAc)?
Answer: -0.189

Question: What about the “glycan array binding signal (z-score)” value (Kdn(a2-3)Gal(b1-3)GlcNAc) of the same binder?
Answer: -0.24

Question: And the “glycan array binding signal (z-score)” value (Kdn(a2-3)Gal(b1-4)Glc)?
Answer: -0.036

Question: What about the “glycan array binding signal (z-score)” value (Kdn(a2-3)Gal(b1-4)GlcNAc) of the same binder?
Answer: -0.25

Question: And the “glycan array binding signal (z-score)” value [11]?
Answer: 0.815

Question: And the “glycan array binding signal (z-score)” value (Kdn(a2-6)Gal(b1-4)GlcNAc)?
Answer: -0.259

Question: What about the “glycan array binding signal (z-score)” value [12] of the same binder?
Answer: -0.264

Question: And the “glycan array binding signal (z-score)” value [13]?
Answer: 0.015

Question: And the “glycan array binding signal (z-score)” value (Man(a1-2)Man(a1-3)Man)?
Answer: -0.259

Question: What about the “glycan array binding signal (z-score)” value [14] of the same binder?
Answer: -0.239

Question: And the “glycan array binding signal (z-score)” value [15]?
Answer: -0.287

Question: What about the “glycan array binding signal (z-score)” value [16] of the same binder?
Answer: 0.01

Question: And the “glycan array binding signal (z-score)” value [17]?
Answer: -0.26

Question: What about the “glycan array binding signal (z-score)” value [18] of the same binder?
Answer: -0.276

Question: And the “glycan array binding signal (z-score)” value [19]?
Answer: -0.167

Question: And the “glycan array binding signal (z-score)” value (Man(a1-3)[Man(a1-6)]Man)?
Answer: -0.24

Question: And the “glycan array binding signal (z-score)” value [20]?
Answer: -0.246

Question: And the “glycan array binding signal (z-score)” value [21]?
Answer: -0.238

Question: What about the “glycan array binding signal (z-score)” value [22] of the same binder?
Answer: -0.24

Question: What about the “glycan array binding signal (z-score)” value [23] of the same binder?
Answer: -0.249

Question: And the “glycan array binding signal (z-score)” value [24]?
Answer: -0.198

Question: What about the “glycan array binding signal (z-score)” value (Man(a1-6)Man) of the same binder?
Answer: -0.128

Question: What about the “glycan array binding signal (z-score)” value (Man(b1-4)GlcNAc) of the same binder?
Answer: -0.229

Question: What about the “glycan array binding signal (z-score)” value (MurNAc(b1-4)GlcNAc) of the same binder?
Answer: -0.27
